PMC4336329 (PLoS ONE, 2015)
The campaign covered roughly 310,000 compounds. About 14,000 (4.5%) showed an effect of 50% or more. Effects have a minus sign here. Some of the results follow.

target: human ether-à-go-go-related gene (hERG) potassium channel (human, UniProt Q12809); test: primary screen, population patch clamp on CHO cells stably expressing hERG
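Also: peak tail current of the secondary pulse compared with the same well before compound.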

human ether-à-go-go-related gene (hERG) potassium channel, sequence (Q12809 whole entry, looked up): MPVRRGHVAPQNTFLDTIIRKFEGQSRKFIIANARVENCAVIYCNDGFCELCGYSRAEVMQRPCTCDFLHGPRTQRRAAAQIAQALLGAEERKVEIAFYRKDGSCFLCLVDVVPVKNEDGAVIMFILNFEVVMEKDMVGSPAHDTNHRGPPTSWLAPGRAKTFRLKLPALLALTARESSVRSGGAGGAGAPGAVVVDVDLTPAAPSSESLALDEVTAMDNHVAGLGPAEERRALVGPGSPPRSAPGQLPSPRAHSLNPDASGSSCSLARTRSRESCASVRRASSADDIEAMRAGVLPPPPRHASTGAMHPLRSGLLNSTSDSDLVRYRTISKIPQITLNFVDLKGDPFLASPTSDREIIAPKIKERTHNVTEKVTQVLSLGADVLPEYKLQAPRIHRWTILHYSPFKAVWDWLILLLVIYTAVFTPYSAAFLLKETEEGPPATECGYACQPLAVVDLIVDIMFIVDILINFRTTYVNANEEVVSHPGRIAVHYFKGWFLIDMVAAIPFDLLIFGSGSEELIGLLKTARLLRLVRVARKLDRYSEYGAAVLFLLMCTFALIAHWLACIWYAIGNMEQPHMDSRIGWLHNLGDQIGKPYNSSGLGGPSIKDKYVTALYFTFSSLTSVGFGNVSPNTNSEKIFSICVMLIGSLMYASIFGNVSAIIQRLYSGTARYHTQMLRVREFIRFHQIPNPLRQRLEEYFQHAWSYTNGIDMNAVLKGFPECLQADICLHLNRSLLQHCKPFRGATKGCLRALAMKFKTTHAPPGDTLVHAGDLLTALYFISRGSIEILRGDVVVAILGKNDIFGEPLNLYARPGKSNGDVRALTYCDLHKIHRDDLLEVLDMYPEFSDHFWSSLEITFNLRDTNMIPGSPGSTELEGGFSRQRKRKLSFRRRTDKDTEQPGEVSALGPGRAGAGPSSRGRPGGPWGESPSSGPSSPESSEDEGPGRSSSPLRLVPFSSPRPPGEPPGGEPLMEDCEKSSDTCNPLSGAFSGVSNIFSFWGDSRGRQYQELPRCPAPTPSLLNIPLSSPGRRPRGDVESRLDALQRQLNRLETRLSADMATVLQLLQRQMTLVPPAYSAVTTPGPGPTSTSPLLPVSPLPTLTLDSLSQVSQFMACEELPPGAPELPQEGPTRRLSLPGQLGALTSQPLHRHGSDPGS

SMILES | hERG current change (%, negative = inhibition) at 10uM [%]
O=C(CSc1nc(-c2ccccc2)cc(=O)[nH]1)Nc1ccc(Br)cc1 | 21.5
Cc1csc(=O)n1CCC(=O)OCC(=O)NNC(=O)c1ccc(Br)cc1 | -11.1
CCC(=O)N1CC23C=CC(CC2CC12CCCCC2)O3 (centres unmarked) | -4.2
C/C(=N\Nc1nnc(C)c(=O)[nH]1)C(=O)O | 13.2
Cc1noc(C)c1COC(=O)c1csc2c1CCC(C)C2 (centres unmarked) | 4.48
CC(=O)Nc1cccc(C(=O)N2CCN(Cc3ccccc3)CC2)c1 | 17.6
CCCc1nnc(SCC(=O)Nc2ccc(C(=O)OCC)cc2)o1 | 7.85
COc1ccc(NC(=O)Nc2cccs2)cc1Cl | 6.01
COc1ccc(-c2cc(=O)oc3cc(OC(C)C(=O)Nc4ccc(CN5CCOCC5)cc4)ccc23)cc1 (centres unmarked) | -0.104
CNc1c([N+](=O)[O-])cnn1-c1ccc(Cl)cc1 | 0.0173
Cc1ccc(NC(=O)C(OC(=O)c2ccc(F)cc2)c2ccccc2)cc1Cl (centres unmarked) | 20.5
CC1CCCN(C(=O)CSCC(=O)Nc2nc(-c3cccs3)cs2)C1 (centres unmarked) | -31.1
Cc1cc(-c2ccc(N3CCOCC3)cc2)nc2ccccc12.Cl | 3.53
CN1CCN(c2ccc(NC(=S)NC(=O)c3cccc4c(Br)cccc34)cc2)CC1 | 16.2
Cc1ccc2nc(C3CCCN(C(=S)Nc4cccc(C)c4C)C3)[nH]c2c1 (centres unmarked) | 1.17
O=C1c2ccccc2C(=Nc2ccccc2)C1c1cccc(Br)c1 (centres unmarked) | 12.9
COC(=O)CC1C(=O)NCCN1C(=S)Nc1cc(C)cc(C)c1 (centres unmarked) | 9.16
Oc1ccc(-c2cccc(-c3ccc(O)cc3)c2)cc1 | 3.27
O=C(CSc1nnc(C2COc3ccccc3O2)o1)N1CCOCC1 (centres unmarked) | 2.95
Cc1ccc(NC(=O)c2ccc(N3C(=O)C4CC=C(Cl)CC4C3=O)cc2)cc1 (centres unmarked) | 12.9
c1nnc(NC2=NCCC2)s1 | 11.9
CC(=O)NCC(=O)NNC1CC(=O)N(c2cccc(Cl)c2)C1=O (centres unmarked) | 16.9
Cn1c(=O)n(C)c2cc(/C=N/NC(=O)c3cccc(Br)c3)ccc21 | 6.71

SMILES | hERG current change (%, negative = inhibition) at 10uM [%]
c1ccc(-n2cnnc2SCc2cn3cccnc3n2)cc1 | 5.32
O=C(Cn1c(=O)oc2cc(S(=O)(=O)N3CCCC3)ccc21)Nc1ccc(C(F)(F)F)cc1 | -0.00062
Cc1ccc2c(c1)c1nc3ccccc3nc1n2CCN1CCOCC1 | -62.8
CCOC(=O)c1cn2nc(OP(=S)(OCC)OCC)cc2nc1C | -40.3
Cc1ccc(-n2nnc(-c3cc4ccccc4nc3Cl)n2)cc1 | 24.9
O=Cc1cc2cc3c(cc2nc1Cl)OCCO3 | 17.9
O=C1OC(c2cccs2)=N/C1=C\c1ccc(-c2cccc(Cl)c2)o1 | 5.16
CCCC(=O)Nc1ccc2c(c1)nc(CCNC(=O)c1ccccc1)n2C | 3.53
CN(C)[C@@H](CO)c1nnc([C@H](CCC(=O)O)NC(=O)C2CCNCC2)o1.Cl | -1.23
CCOC(=O)C1CCCN(C2CC(=O)N(c3ccc(C)c(C)c3)C2=O)C1 (centres unmarked) | 10.6
NC(=O)c1cccn1Cc1cccc(Cl)c1 | -13
Cc1ccc(C)c(NC(=S)N/N=C2\CCc3ccccc32)c1 | 9.03
O=C(Nc1cccnc1)c1ccccc1Oc1ccccc1 | -6.55
CCC(C)NC(=O)COC(=O)c1cccnc1Nc1ccccc1F (centres unmarked) | 8.21
Cn1c(=O)n(C)c2cc(NC(=O)c3cc4ccccc4o3)ccc21 | -18.8
O=[N+]([O-])c1cc(/C=N/O)ccc1Sc1ccccc1 | 13.7
CCC(NS(=O)(=O)c1cnn(CC)c1)c1ccccc1 (centres unmarked) | 21.5
OCCN1CCN(C(=S)Nc2ccccc2)CC1 | 7.11
CCOc1cccc(/C=C/c2ccc3cccc(O)c3n2)c1O | 13.9
CCn1c(C(C#N)/C(=N\S(=O)(=O)c2cccs2)c2ccccc2)nc2ccccc21 (centres unmarked) | 6.74
CCn1c(SCC(=O)Nc2nc3ccc(OC)cc3s2)nc2c1c(=O)n(C)c(=O)n2C | -44.8
CSc1nc(O)c(C(c2ccccc2)c2c(O)nc(SC)[nH]c2=O)c(=O)[nH]1 | 17.4
O=C(CCC(=O)OCC(=O)c1ccccc1)Nc1cccc(Cl)c1 | 21.5

SMILES | hERG current change (%, negative = inhibition) at 10uM [%]
CCc1c(C)nc2ncnn2c1NCCc1ccc(Cl)cc1 | -21.2
CS(=O)(=O)c1[nH]nc(-c2cccc(Cl)c2)c1C#N | 8.81
CCc1ccc(OCCOCC(O)CNC(C)CC)cc1.Cl (centres unmarked) | -35.3
C=CCn1c(-c2cccn(Cc3ccc(Cl)cc3)c2=O)n[nH]c1=S | 8.22
CCOc1ccccc1NC1=C(Cl)C(=O)N(c2ccc(OC)cc2)C1=O | -10.4
Oc1ccc(C=NC2CCCCC2)c(O)c1 | 13.3
CC(C)=CCC1=C(OCC(=O)O)C(=O)c2ccccc2C1=O | 5.27
Cc1ccc(CNc2ncnc3cc(Cl)ccc23)o1 | -5.19
COc1cccc(NC(=O)COc2coc(CN3CCN(c4ccccc4)CC3)cc2=O)c1 | 3.45
CS(=O)(=O)N(CC(=O)Nc1ccc2c(c1)OCO2)c1ccccc1 | 2.33
O=C(Nc1cccc(Cl)c1)NC1CCS(=O)(=O)C1 (centres unmarked) | -0.236
COc1ccccc1CN(Cc1nc2ccccc2c(=O)[nH]1)S(=O)(=O)c1ccc(C)cc1 | 4.38
O=C(O)CSc1nccc2ccccc12 | 14.7
CC(Sc1nc(N)cc(=O)[nH]1)C(=O)NC1CCCCC1 (centres unmarked) | -4
N#CC1=C(N)C(C#N)(C#N)[C@H](c2ccoc2)[C@H]2CN(Cc3ccccc3)CC=C12 | -32.4
Brc1cc(Br)cc(CN2CCSCC2)c1 | 31.2
O=C(COC(=O)c1cccc(C(=O)OCC(=O)NCc2ccc(F)cc2)n1)NCc1ccc(F)cc1 | -15.5
O=c1oc2c3c4c(cc2c(C(F)(F)F)c1CCN1CCOCC1)CCCN4CCC3 | -5
CC1=CC(C)(C)n2c(O)c(N=NC(N)=S)c3c(C)c(C)cc1c32 | 12.1
CCOc1ccc(C(=O)OC2CC3CCC(C2)N3C)cc1.Cl (centres unmarked) | -30
C=CCNC(=O)Nc1ccc(OCC)cc1 | -2.74
CCN(C(=O)CN1C(=O)c2ccc([N+](=O)[O-])cc2C1=O)C1CCS(=O)(=O)C1 (centres unmarked) | 13.8
CN(c1ccccc1)S(=O)(=O)c1ccc(C(=O)Nc2nnc(-c3ccco3)o2)cc1 | 6.87

SMILES | hERG current change (%, negative = inhibition) at 10uM [%]
O=C(CC1NCCc2ccccc21)Nc1ccc(Cl)cc1 (centres unmarked) | -46.1
CCOc1ccc(/C=N/OCC(=O)NC(c2ccccc2)c2ccccc2)cc1 | -33.4
Cc1cc(C)nc(Nc2ccccc2Br)n1 | 12.1
Cc1cccc(C(CC(=O)O)NC(=O)C(F)(F)F)c1 (centres unmarked) | 12.2
Cn1c(=O)[nH]c(=O)c2c1nc(SCCN1CCOCC1)n2Cc1ccccc1 | -54.4
COc1cccc(N2C(=NC(=O)COc3ccccc3)SC3CS(=O)(=O)CC32)c1 (centres unmarked) | 9.3
COc1ccc(CNC(=O)CCn2c(=O)[nH]c3ccccc3c2=O)cc1 | 5.79
Cc1ccccc1NC(=O)COc1ccc2oc(=O)cc(C)c2c1 | -5.56
O=C(NNC(=S)Nc1ccccc1Cl)c1ccccc1Cl | 18.8
Cc1c(O)ccc2c(-c3ccccc3)cc(=O)oc12 | 2.02
COc1ccc(-n2c(C)nc3cc(C(=O)N4CCOCC4)ccc32)cc1 | -14.1
CC(C)(C)c1cc(N2CCOCC2)n2ncc(-c3ccc(Cl)cc3)c2n1 | 19.2
O=C(CCc1c[nH]c2ccccc12)OCc1cccc([N+](=O)[O-])c1 | 13.1
O=C(CCS(=O)(=O)c1ccc2c(c1)NC(=O)CS2)NCc1ccccc1Cl | -11.4
O=C(CCCn1c(SCC(=O)Nc2ccccc2Cl)nc2ccccc2c1=O)NCC1CCCO1 (centres unmarked) | -48.9
COc1ccc(C(C)=O)cc1COc1ccc(F)cc1 | -0.00842
O=C(N/N=C/c1ccoc1)c1ccc([N+](=O)[O-])cc1 | 7.19
CC(C)(C)[C@@H]1CCC(=O)N(CC[C@H](N=[N+]=[N-])c2ccccc2)CC1 | -21.6
CC(C)CN(C(=O)c1ccc(F)cc1F)c1c(N)n(CC(C)C)c(=O)[nH]c1=O | 8.07
Cn1ccnc1SCC(=O)Nc1ccc2ccccc2c1 | -12.1
CCOc1ccc(NC(=O)CCSc2nc3c(c(CC)c2C#N)C(=O)CC(C)(C)C3)cc1 | 2.77
O=C(O)/C(=C\c1cccs1)c1ccccc1 | 0.00478
O=S(=O)(/C=C/c1ccccc1)N1CCN(c2nc(-c3ccccc3)nc3ccccc23)CC1 | -9.29
